Our source for the binding values is article PMC8888634.

By UniProt entry, the sequences of proteins in these tests, tags left out. Where a name states a change or a piece, a line headed by the entry shows the natural chain unless it says otherwise.
UniProt Q96FW1: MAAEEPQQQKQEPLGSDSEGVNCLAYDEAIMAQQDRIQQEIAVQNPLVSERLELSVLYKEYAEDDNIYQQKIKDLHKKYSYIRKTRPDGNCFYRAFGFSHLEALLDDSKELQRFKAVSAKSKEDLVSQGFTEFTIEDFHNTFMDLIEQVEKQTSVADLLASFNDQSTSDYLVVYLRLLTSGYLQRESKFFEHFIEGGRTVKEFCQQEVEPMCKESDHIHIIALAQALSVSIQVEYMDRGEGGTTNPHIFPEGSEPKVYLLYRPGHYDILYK
UniProt P10275: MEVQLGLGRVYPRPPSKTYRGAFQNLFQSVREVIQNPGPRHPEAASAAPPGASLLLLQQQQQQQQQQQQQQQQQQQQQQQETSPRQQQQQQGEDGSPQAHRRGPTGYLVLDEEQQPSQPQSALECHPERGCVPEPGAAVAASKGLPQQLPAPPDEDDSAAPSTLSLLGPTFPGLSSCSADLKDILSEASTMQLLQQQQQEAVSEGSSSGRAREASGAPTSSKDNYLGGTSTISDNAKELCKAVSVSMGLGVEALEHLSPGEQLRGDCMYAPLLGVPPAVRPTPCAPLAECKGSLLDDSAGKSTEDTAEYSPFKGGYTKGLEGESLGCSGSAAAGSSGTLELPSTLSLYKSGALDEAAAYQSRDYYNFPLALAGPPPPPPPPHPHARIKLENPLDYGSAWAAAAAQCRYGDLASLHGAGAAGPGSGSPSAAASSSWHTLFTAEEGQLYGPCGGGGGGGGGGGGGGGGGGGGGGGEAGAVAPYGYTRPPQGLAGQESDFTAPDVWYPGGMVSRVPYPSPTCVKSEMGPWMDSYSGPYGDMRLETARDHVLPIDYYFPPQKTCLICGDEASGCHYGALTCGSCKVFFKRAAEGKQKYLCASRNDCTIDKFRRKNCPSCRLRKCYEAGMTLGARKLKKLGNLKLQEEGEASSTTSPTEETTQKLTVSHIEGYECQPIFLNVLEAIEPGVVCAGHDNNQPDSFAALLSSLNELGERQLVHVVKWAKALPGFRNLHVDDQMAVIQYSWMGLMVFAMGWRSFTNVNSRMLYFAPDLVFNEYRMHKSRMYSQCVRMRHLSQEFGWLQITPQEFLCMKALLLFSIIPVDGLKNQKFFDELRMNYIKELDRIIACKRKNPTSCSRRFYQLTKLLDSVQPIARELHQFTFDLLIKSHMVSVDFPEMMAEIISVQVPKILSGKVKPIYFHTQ
UniProt P51532: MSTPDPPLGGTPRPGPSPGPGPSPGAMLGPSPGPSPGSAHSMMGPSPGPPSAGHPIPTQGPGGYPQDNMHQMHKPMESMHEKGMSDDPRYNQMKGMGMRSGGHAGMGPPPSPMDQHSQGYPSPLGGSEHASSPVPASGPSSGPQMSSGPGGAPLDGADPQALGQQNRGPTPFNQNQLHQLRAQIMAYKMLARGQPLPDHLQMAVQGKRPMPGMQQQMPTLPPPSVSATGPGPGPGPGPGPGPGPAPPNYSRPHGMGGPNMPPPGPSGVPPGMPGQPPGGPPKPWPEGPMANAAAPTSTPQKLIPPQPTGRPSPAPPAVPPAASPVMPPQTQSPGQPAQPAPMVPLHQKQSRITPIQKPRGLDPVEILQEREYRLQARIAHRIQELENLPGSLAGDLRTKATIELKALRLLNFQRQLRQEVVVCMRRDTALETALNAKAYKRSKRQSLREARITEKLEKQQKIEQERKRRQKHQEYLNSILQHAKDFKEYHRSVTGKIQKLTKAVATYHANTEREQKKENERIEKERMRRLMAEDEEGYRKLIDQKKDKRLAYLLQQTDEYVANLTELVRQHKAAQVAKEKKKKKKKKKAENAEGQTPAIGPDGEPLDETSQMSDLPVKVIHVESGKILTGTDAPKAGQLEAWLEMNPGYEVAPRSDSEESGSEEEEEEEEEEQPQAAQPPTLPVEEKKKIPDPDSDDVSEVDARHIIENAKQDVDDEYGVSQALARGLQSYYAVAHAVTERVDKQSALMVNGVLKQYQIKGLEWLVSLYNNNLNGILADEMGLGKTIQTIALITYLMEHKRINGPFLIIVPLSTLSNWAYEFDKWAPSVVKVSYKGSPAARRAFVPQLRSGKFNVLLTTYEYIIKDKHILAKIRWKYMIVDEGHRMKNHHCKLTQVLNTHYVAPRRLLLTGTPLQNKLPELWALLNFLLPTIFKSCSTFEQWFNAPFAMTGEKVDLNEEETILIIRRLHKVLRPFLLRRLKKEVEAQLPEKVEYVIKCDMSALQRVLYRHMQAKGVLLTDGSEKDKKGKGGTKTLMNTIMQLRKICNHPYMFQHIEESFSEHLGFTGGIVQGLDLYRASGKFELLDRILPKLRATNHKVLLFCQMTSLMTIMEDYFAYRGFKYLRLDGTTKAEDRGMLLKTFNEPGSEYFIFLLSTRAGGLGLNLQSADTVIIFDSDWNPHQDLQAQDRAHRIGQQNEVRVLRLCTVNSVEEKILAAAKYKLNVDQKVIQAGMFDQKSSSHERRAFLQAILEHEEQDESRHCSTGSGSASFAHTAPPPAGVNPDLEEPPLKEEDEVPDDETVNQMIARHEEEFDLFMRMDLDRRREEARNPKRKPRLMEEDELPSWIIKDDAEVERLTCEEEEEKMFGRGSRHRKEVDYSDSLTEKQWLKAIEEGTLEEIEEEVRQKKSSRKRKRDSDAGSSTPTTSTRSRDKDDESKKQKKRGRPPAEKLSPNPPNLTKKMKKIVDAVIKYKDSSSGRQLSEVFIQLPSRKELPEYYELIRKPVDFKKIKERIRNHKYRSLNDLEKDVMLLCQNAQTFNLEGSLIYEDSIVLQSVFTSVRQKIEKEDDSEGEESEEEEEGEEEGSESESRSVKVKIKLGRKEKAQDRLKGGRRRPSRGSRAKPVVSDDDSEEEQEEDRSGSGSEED

No constants are given. Whether binding was seen depends on the method and setting. In cells and extracts the contact can be indirect. Some entries that bind do so weakly or less than the wild type. For part of these data: Sequences can lack the tags named with a protein.

In experiment [1] the target is T1, OTUD6A, endogenous in prostate cancer cells (human (endogenous in VCaP)) (UniProt Q7L8S5).
T1 sequence: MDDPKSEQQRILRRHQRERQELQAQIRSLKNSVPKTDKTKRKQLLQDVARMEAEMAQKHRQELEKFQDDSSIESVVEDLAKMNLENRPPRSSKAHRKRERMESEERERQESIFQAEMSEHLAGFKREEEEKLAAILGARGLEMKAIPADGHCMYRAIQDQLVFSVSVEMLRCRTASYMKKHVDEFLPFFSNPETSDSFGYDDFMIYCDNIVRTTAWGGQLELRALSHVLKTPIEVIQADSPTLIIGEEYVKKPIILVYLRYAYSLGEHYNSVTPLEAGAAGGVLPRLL
As to the kind of experiment: co-IP; IP-IB analysis in other prostate cancer cell lines, including PC-3, LNCaP and C4-2 (Supplementary Fig. 4d, e).

The target in experiment [2] is T1, OTUD6A, endogenous in prostate cancer cells (human (endogenous in VCaP)). As to the kind of experiment: co-IP; endogenous proteins, VCaP cells; anti-OTUD6A or anti-Brg1, anti-AR antibodies, IgG as negative control; lysis in EBC buffer (50 mM Tris pH 8.0, 120 mM NaCl, 0.5% NP-40), overnight at 4 °C, washes with NETN buffer; immunoblot. In general terms: A western blot detects proteins with antibodies after separation by electrophoresis.

In experiment [3] the target is T2, OTUD6A-C-terminus, as used in the GST pull-down (human) (UniProt Q7L8S5).
T2 sequence: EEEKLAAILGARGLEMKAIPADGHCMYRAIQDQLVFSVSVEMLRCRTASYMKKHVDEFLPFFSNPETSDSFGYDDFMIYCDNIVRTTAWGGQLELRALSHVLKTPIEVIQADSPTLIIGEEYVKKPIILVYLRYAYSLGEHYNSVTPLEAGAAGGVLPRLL
The experiment can be described thus: pull-down; in vitro GST pull-down with OTUD6A-N-terminus, -C-terminus and -full length; immunoblot.

The target in experiment [4] is T3, OTUD6A-N-terminus, as used in the GST pull-down (human) (UniProt Q7L8S5).
T3 sequence: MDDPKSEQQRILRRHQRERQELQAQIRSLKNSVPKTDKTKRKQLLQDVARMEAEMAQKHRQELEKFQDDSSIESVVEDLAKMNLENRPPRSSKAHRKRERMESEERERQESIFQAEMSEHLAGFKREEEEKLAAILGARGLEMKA
The description is as above.

Experiment [5] concerns the target T4, OTUD6A N-terminus, as used in the co-IP assay (Supplementary Fig. 4f) (human) (UniProt Q7L8S5).
T4 sequence: T3 sequence
The experiment can be described thus: co-IP; co-IP of the N-terminus and C-terminus of OTUD6A with Brg1 and AR (Supplementary Fig. 4f); cells and tags not shown.

For experiment [6], the target named is Flag-OTUB1, expressed in 293T cells (UniProt Q96FW1). The experiment can be described thus: co-IP; 293T cells transfected with HA-tagged Brg1 or AR (whole or fragments) and Flag-tagged OTU family members; IB of WCLs and IPs; lysis in EBC buffer, washes with NETN buffer.
Experiment [7] concerns the target T5, Flag-OTUD6A (pcDNA3.1-Flag-OTUD6A), expressed in 293T cells (human) (UniProt Q7L8S5).
T5 sequence: T1 sequence
Described as above.

As for “AR (androgen receptor), endogenous in prostate cancer cells (from UniProt P10275 1-920)”, the binding entry in experiment [1] and in experiment [2] was “binds” each time.

Consider “AR, as used in the GST pull-down (from UniProt P10275 1-920) (receptor)”, for which the binding result in experiment [3] is reported as “no binding”; in experiment [4], “binds”.

As for “Brg1, as used in the GST pull-down (from UniProt P51532 1-1647)”, the binding result is reported as “no binding” in experiment [3] and “binds” in experiment [4].

As for “Brg1, the ATPase subunit of the SWI/SNF chromatin remodeling complex, endogenous in prostate cancer cells (from UniProt P51532 1-1647)”, the binding result in experiment [1] and in experiment [2] was “binds” each time.

On to “HA-AR (pcDNA3.1-HA-AR), expressed in 293T cells (from UniProt P10275 1-920) (receptor)”, for which the binding result in experiment [5], in experiment [6] and in experiment [7] was “binds” each time.

Take “HA-Brg1 (pCMV5-HA-Brg1), expressed in 293T cells (from UniProt P51532 1-1647)”: the binding result in experiment [5] and in experiment [7] was “binds” throughout.

In the case of “HA-tagged C-terminal domain of Brg1 (amino acids 1301-1647), expressed in 293T cells (from UniProt P51532 1301-1647) (domain or fragment)”, the binding entry in experiment [7] was “binds”.

Turning to “HA-tagged LBD (ligand-binding domain) of AR (amino acids 670-920), expressed in 293T cells (from UniProt P10275 670-920) (domain or fragment)”, the binding result in experiment [7] is reported as “binds”.
